The text below walks through data of the supplement of paper PMC7726561.

In all, about 1,100 sequences were measured (“thermal melting temperature (Tm) of peptide-HLA complex”: median about 58, lowest 2% from about 42 on). Some of the results follow.
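Also: cell lysates heated 10 min at 37–73 °C, remaining pHLA pulled down with pan-class I antibody, peptides quantified by DIA-MS versus 37 °C, Tm where half the complex is lost.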

For this assay, the target named is HLA-A*02:01. Put plainly: thermal melting temperature (Tm) of peptide-HLA complex; higher = more thermostable pHLA complex. As to conditions: C1R-A*02:01.
GVLDTLTKV returned a thermal melting temperature of 59.8 °C.
Consider QLLAILPEA, for which the thermal melting temperature amounted to 59.1 °C.
Next, VVWGTVIRV: 58.5 °C; ALEEADKMFL: 46.2 °C.
The sequence QLQGYLRSV came in with a thermal melting temperature of 57.7 °C.
Sequence ALADKELLPSV returned a thermal melting temperature of 63.4 °C.
FLMENGSITSI: the thermal melting temperature turned out to be 58.2 °C.
Consider KLLDPEDISV, for which the thermal melting temperature worked out at 59.5 °C.
Take VVVDPIQSV: the thermal melting temperature amounted to 50.6 °C.
Next, ILLDNDHYAM: 50.2 °C; VIDGHIYAV: 59.7 °C.
As for RTIEYLEEV, the thermal melting temperature stood at 59.7 °C.
LIDVKPLGV registered a thermal melting temperature of 47.3 °C.
For KLNATNIEL, the thermal melting temperature is 51.5 °C.
For LADETLLKV, the thermal melting temperature was found to be 55.2 °C.
KLYDIDVAKV gave a thermal melting temperature of 56.2 °C.
With VLWNKTVTA, the thermal melting temperature turned out to be 42.8 °C.
Turning to AMFDHIPVGV, the thermal melting temperature came out at 55.3 °C.
With YVTDVLYRV the figure was 62.5 °C.
Take ELFSSPPAV: the thermal melting temperature is 59.7 °C.
As to ALLDQLHTL, the thermal melting temperature came to 62.5 °C.
With QLNDVAHLV the figure was 54.4 °C.
Next, TMAKESSIIGV: 58.8 °C.
As for YLGNINPQM, the thermal melting temperature turned out to be 59.7 °C.
For SMMDPNHFL, the thermal melting temperature is 56 °C.
As for GLDDIKDLKV, the thermal melting temperature is 60.7 °C.
On to VLKEIVERV, for which the thermal melting temperature came out at 57.3 °C.
With QLSEVFIQL the figure was 55.2 °C; with RPFLAEAPTAL, 48 °C.
On to KIIDFIYTA, for which the thermal melting temperature came out at 58 °C.
ILDDTAKNLRV showed a thermal melting temperature of 44.7 °C.
The sequence SLLGGVLRV gave a thermal melting temperature of 55.7 °C.
In the case of KLMDPGSLPPL, the thermal melting temperature worked out at 57.3 °C.
With SLFGGSVKL, the thermal melting temperature worked out at 61.2 °C.
Next, KLQDQIFNL: 56 °C; YLEPYLKEV: 63.1 °C; RLYPWGVVEV: 63.7 °C.
SLMDLQERL: the thermal melting temperature turned out to be 57.6 °C.
With ILMGVLKEV, the thermal melting temperature amounted to 60.3 °C.
ALNGHVEMV: the thermal melting temperature was found to be 54.2 °C.
RLFDEPQLASL gave a thermal melting temperature of 58.5 °C.
KLLEPVPVSV displayed a thermal melting temperature of 61.6 °C.
With GLADITQQL the figure was 58.3 °C; with WLAETTHAL, 53.9 °C; with NLFNRYPAL, 58.4 °C.
For KLYGPEGLELV, the thermal melting temperature was 56 °C.
The sequence SMGQLPHTV returned a thermal melting temperature of 41.4 °C.
With YLVVKIEKV the figure was 55.3 °C; with FLKDLVASV, 63.3 °C; with RLLENMTEV, 60 °C.
Next, ILAPTVQEL: 51.6 °C; ALLAGSEYLKL: 63.4 °C.
Sequence RLAEALPKQSV had a thermal melting temperature of 41.8 °C.
As for LLDPNIYRT, the thermal melting temperature turned out to be 43.6 °C.
The sequence FLADRFVEGV displayed a thermal melting temperature of 61.4 °C.
The sequence RILDIDIPMSV returned a thermal melting temperature of 57 °C.
